Laboratory results as given in the RNAGym collection of RNA variant scans (doi:10.1093/nar/gkz1192).
The source gives no read counts; variants with many changes may rest on few reads.

B1: CPEB3 Ribozyme (parent)
chain: UAACAGGGGGCCACAGCAGAAGCGUUCACGUCGCAGCCCCUGUCAGAUUCUGGUGAAUCUGCGAAUUCUGCUGUAUAUCUC

Variants of: B1
Experiment: self-cleavage, relative activity (ratio to wild type); higher = more cleavage; in vitro, sequencing
How it was run: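 Relative activity was defined as the cleaved/total read fraction for a variant divided by the same fraction for the unmutated ribozyme. CPEB3 self-cleaving ribozyme libraries were made by rounds of error-prone PCR, barcoded, and transcribed in vitro with T7 RNA polymerase for 5 hours at 37°C, and cleavage ran through transcription plus a 15 min DNase I step before EDTA. Illumina sequencing of template-switched reverse transcripts gave the reads, and DNA sequencing mapped the barcodes. Averages come from three batches, using variants with at least 5 reads.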

Variant	self-cleavage
U41C A47G G73A	1.29
G42A U54C C62U	0.14
U41C U48A A64G U66C A77G	0.06
U41C U49C A56G A57G A64G A65C	0.12
G42U U43A U67A	0.15
G42U U49C G53A C59U A64G	0.12
U41C U49C U58A U74A	0.13
U41C A45U U51C U60C C71A	0.18
U41C G42C U48C	0.15
U41C A47C A75U	0.8
U41G A64G U72A	0.05
U41C A56U U69G A77U U80A	0.38
G42U U69A U74C	0.21
U41C U74C U78C	1.19
U43A A45G U72C	0.95
U41G C68A U69A	0.27
U41C U67A U80A	0.64
U41C G42A A45G U49C U66C U67A	0.17
U41C A47G A75G U80C	0.64
U41C A65U U67C U76C	0.3
G42A A64C A65G	0.08
U41C U43A A45C	0.29
U41C U51C A75U	0.68
U41C U51C U54C U69A U80C	0.64

Variant	self-cleavage
U41G U51A A77U	0.11
U41G U54A A56G A65C U76C	0.09
U41C U48C U80A	0.99
U41G U60A U66C	0.12
U41C C59A U74A	0.57
U41C G73A U74A	1.46
U41G U60C A64G U80C	0.44
U43A A47U U66C	0.15
U41C U54C A57G G70A U74G A75G	0.1
U41C U43C A64G U72A	0.2
U43A A47G U80C	1.08
U41C U58C U60C	0.24
U41C C44U U60A	0.21
U41C A47G G52C	0.69
U41C A47G G52A	0.9
U41C U51C A64U A77G	0.41
U41C U43C U48A U72C A77G U80A	0.09
U41G U49C U54C U69A	0.15
U41C U48A U51C U80C	0.26
U41C A57G A65G	0.59
U41G A65U U67G	0.17
U41C U60C U66C	0.31
U41C U48C A56U U72G	0.11
U41C U43A A57G U72G	0.42

Variant	self-cleavage
U41C U72C U74C	1.31
U41C G73U U76A	1.22
U41C U43G U51A U69C	0.43
U41G A57G U58C	0.11
U41C U51C A57G A64G A65G	0.31
U41C U54C A64U A77U U78C	0.26
U41C U43A U67C	0.15
U41C C50A U66C	0.36
G42A U54C A56G U69A	0.42
U41C U54C A57G U58C U76A U78C	0.16
U43A A45C G46A A47U U54C U72A	0.08
U41C A56G C59U A64U G70A G73C	0.24
U41C A57U U78A	0.86
U41C A47U U48C U66C	0.19
U41G U43C A65G U67C	0.37
U41C U51A U69A U76C	0.84
U41C C62G G63A A77G	0.22
U41C U74C C79A	1.28
U43A A47G G61C C62U	0.13
U41C C62G U69A	0.19
U43A A47G A57G C62U	0.13
U41C U54A U72C	1.21
U41G U48A U51C U67C	0.37
U41C G70U U80C	0.28

Variant	self-cleavage
U41C U49C U66G U69C	0.45
U41C G63A U66A C68G	0.3
U43A A45U A56G	0.27
U41C U49C A75G	0.32
U41G U54G A56U A65G U69A	0.06
U41C U60C A64G U72G A77C	0.36
U41C U58C U60A U80C	0.18
U43A A45U U51A	0.35
U41C U43C U78C U80C	0.2
U41C U76C U80G	1.16
U41C U76C U80A	1.22
U41C U48C A56U	0.37
U41C A56G U67C U72C A75G	0.43
G42C U60C U66C	0.12
U41C U51A A56G U80C	1.06
U41C U66A U72C U78C	0.47
U41C A57G U72C A75U U78A	0.93
U41C A56U C62U	0.11
U41C U51A A64U U66C U74C U78A	0.2
U41C U51C A57G U58C	0.41
U41C A57G U80A	1.15
U41C C62G A64G U80C	0.48
U41C U43C U49A U78C	0.13
U41C G46A U49A A57G	0.1

Variant	self-cleavage
U41C U49C G53U A65G	0.17
U41C A47U U69C	0.11
U43A A47G U48C	0.28
U41C U48C U54A	1.07
U41C A47U U54G	0.31
G42C U69C U80C	0.13
U41C U48C G61C U74A	0.22
U41G A56G U74C	0.16
U41C U66G U76C U80C	0.17
U41C U51A A77G U80C	1.15
U41C U43C U54C A75U	0.27
U41C U51G A64G U80A	0.85
U41C U69A U80C	0.48
G42U U58C A64G U67C	0.08
U41G U54A U80C	0.55
U41C U48A A77G	0.37
U41C U49A U80A	1.06
U41C U48C A56G A57G	0.73
U41G U60A U76A	0.22
U43A A45U U49A U60C U72A	0.14
U41C C44U G55U A57G U60C	0.07
U43A A47G U60C U72C	0.54
U41C A47U U60C U67C	0.06
U41G U51C G53A A56G U60A U69C A75G	0.06

Variant	self-cleavage
G42A U72C U76A	0.32
U41C U51C U58A A64C	0.14
U41G U51A U78C	0.27
U41C U69C G73U	0.78
U41C U49C U74C U80C	0.74
G42C A57G A64U U78C	0.07
U41G A56G G73A	0.3
U41C U51A U67C	0.32
U41G A56G U58C A64U U76C	0.07
U41C C50A A77G	0.94
U43A A45G A64G	0.41
U41C U43C A45G A56G A65U	0.11
U41C U48C A65G U67C	0.15
U41C U74A A75G	1.22
U41C U43C A56G U69A U80C	0.05
U41C G42A U54A	0.42
U41C U48C U54G U72A	0.36
U41C U43A U69A	0.34
U41C G46U U49C U72A	0.1
U41C U54A U80C	1.12
U41C U49A U54C	0.28
G42C U58C G63A	0.18
U41C U43A U76C	0.93
U41G A45G U60G	0.28

Variant	self-cleavage
U41G U43C U49C U67C	0.1
U41C U54C A56G	0.48
G42A A47G U78C	0.21
U41C U51C U76A U78C	1.07
U41C A47G A57G A77G	0.7
U41C U66C U76C	0
U41C C50A U67C U80C	0.23
U41C A45U U80G	0.96
U41C U43C C81U	0.42
U41G A64G A65U U66A	0.12
U43A A47G U60C U67A U69A	0.32
U41C U51A U66A U78A	0.65
U41C U49C U51A U54A G61A U69A U74A	0.31
U41C U48C U51C	0.6
U41G U49C U51A	0.44
U41G A56G A57G U69C	0.27
G42A U58C U76C	0.23
U41G U51A U72A	0.4
U41C A57G A64C U69C	0.34
U41C A56G U58A G70C	0.14
U41C U51C U66C U80C	0.43
G42A A45G U67C	0.18
G42U U43C U72A	0.15
